From PubChem BioAssay AID493208 (National Center for Advancing Translational Sciences (NCATS), 2011)
Out of some 44,000 compounds screened, about 340 (0.77%) were called active. Roughly 5% stayed inconclusive and do not appear here. The call rests on the fitted dose curve; in most records, active means well fitted inhibition curve with a large enough effect; inconclusive means small, poorly fitted or top-dose-only effect; inactive means flat fitted curve, though single readings scatter. The list shows a part of the results.

Test: Acumen qHTS Assay for Inhibitors of the mTORC1 Signaling Pathway in MEF (Tsc2-/-, p53-/-) Cells: Sytravon;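 further: plate controls were DMSO for no effect and rapamycin for full effect; nearly all actives have a fitted effect of over 50% in size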
Settings: phospho-rpS6 immunofluorescence/PI, 24 h; series mostly up to 38.3 µM; activity change, negative = inhibition: at the top concentration
Summary of the method: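 Read-out: phospho-S6 Alexa-488 intensity over PI intensity per well, scored as % active cells using thresholds from rapamycin (7.5 nM) and DMSO controls. Tsc2-/-, p53-/- MEFs exposed to compound for 24 h; PI cell count recorded as viability.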

Activity change, negative = inhibition, inactive:
CNS(=O)(=O)c1cn(CC(=O)Nc2ccc(OC)cc2OC)cc1S(=O)(=O)NC -13.9%
Cc1ccccc1/C=C(\C#N)c1nc(-c2ccc(Cl)cc2)cs1 6.91%
Cc1csc2nc(-c3ccc(NS(=O)(=O)c4cc(F)ccc4F)cc3)cn12 3.8%
CN(C(=O)c1ccc2c(Cl)c3c(nc2c1)CCC3)c1ccccc1F 0.368%
COc1ccc(CCN2C(=O)CN(C3CCCCCC3)C(=O)C2c2ccc(OC(C)C)c(OC)c2)cc1OC (stereo not drawn) 0.562%
Cc1ccc(CNC(=O)c2nnc(Cc3ccc(Cl)cc3)o2)cc1 -0.369%
CCN(CC)C(=O)Cn1c(=O)n(-c2ccccc2)c(=O)c2c3c(sc21)CCC3 -0.487%
COc1ccccc1C(=O)Nc1ccc(C(=O)OCc2cc(=O)n3nc(C)sc3n2)cc1 14.1%
Cc1c(Cl)cccc1Nc1nc2ccc(C(=O)c3ccccc3)cc2n2cnnc12 -1.56%
Cc1ccc(NC(=O)Cn2c(-c3cncs3)nc3ccccc32)c(Br)c1 2.72%
Cc1ccc(CNC(=O)CN2C(=O)C3(SCC(=O)N3c3ccc(F)cc3)c3ccccc32)cc1 (stereo not drawn) -2.12%
CC(=O)N1CCc2c(sc3c2c(=O)n(Cc2ccccc2)c(=O)n3Cc2cc(C)ccc2C)C1 2%
COc1ccc2c(c1)Cc1sc(NC(=O)c3cccc(Br)c3)nc1-2 3.39%
CC1CN(C(=O)N2CCC(C(=O)NCCCc3ccccc3)CC2)c2ccccc2O1 (stereo not drawn) 9.36%
CCOc1ccc(Nc2oc(/C=C/c3cccc(OC)c3)nc2C#N)cc1 -4.79%
CCCCCn1c(CCNC(=O)c2cccc(C)c2)nc2ccccc21 -19.4%
COc1ccc(CNC(=O)CCc2nc(-c3ccc(OC)cc3)no2)cc1 -9.19%
CCc1ccc(CNC(=O)C2CCCN(S(=O)(=O)c3ccc4c(ccn4C)c3)C2)cc1 (stereo not drawn) -6.47%
CCSc1nc2c([nH]c3ccccc32)c(=O)n1-c1ccc(F)cc1 -9.89%
Cc1cc(C)c2c(n1)sc1c(=O)n(-c3ccccc3C(F)(F)F)nnc12 1.2%
CCC(=O)N1CCc2cc(CNS(=O)(=O)c3cccs3)ccc21 4.76%
Cc1ccc(OCCSc2nc3ccc(NC(=O)c4ccc(F)cc4)cc3s2)cc1 0.41%
CCOC(=O)C(CC)Sc1c(CC)cnc2c1c(=O)n(C)c(=O)n2C (stereo not drawn) -4.8%
Cc1cccc(C(C)C)c1NC(=O)C(NS(=O)(=O)c1cccc2nsnc12)c1ccccc1 (stereo not drawn) 1.92%
Cc1ccc(Cc2cn3cc(-c4ccc(F)cc4)nc3s2)cc1 1.1%
COc1ccc(-c2c(C)c3ccc(O)c(CN4CCCC4)c3oc2=O)cc1OC -2.01%
COc1cccc(-c2cn3ncsc3n2)c1 -10.3%
Cc1ccccc1CSc1ccc(-c2cccs2)nn1 -18%
